# In the supplement of paper PMC8728848:
# This is one part of the list.
# B1: CCL1 (Coprinopsis cinerea) (protein)
# chain: MDTQAKPPAGRYVIYNRVLSPNGEKLALTYPGYQREALTLTPLHHSANQIWILNNWDATTSSLTPETARNTQVGWGSGNVPIVLPPGNYVWTLASSAGGYIIQDGGKTVYWNAGEAVANTKVSIGGDNGLQARWIFERV
# What was measured:
# Test in all cases: glycan array binding signal (z-score within array); higher = stronger binding
# Details in all cases: glycan notation: IUPAC condensed, linker removed
# [1] = target: Neu5Ac(a2-3)Gal(b1-3)GlcNAc(b1-3)GalNAc
# In short: (§1)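 Arrays were curated from the Consortium for Functional Glycomics database, 3228 in total, and kept only where the protein sequence was available. Binding is expressed as a within-array Z-score. This score was averaged across arrays of the same protein sequence at different concentrations or buffers and across linkers, and negative values can be read as non-binding.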
# [2] = target: Neu5Ac(a2-3)Gal(b1-3)GlcNAc(b1-6)GalNAc
# In short: as §1
# [3] = target: Neu5Ac(a2-3)Gal(b1-3)GlcNAc6S
# In short: as §1
# [4] = target: Neu5Ac(a2-3)Gal(b1-3)[Fuc(a1-4)]GlcNAc
# In short: as §1
# [5] = target: Neu5Ac(a2-3)Gal(b1-3)[Fuc(a1-4)]GlcNAc(b1-3)Gal(b1-3)[Fuc(a1-4)]GlcNAc
# In short: as §1
# [6] = target: Neu5Ac(a2-3)Gal(b1-3)[Fuc(a1-4)]GlcNAc(b1-3)Gal(b1-4)[Fuc(a1-3)]GlcNAc
# In short: as §1
# [7] = target: Neu5Ac(a2-3)Gal(b1-3)[Neu5Ac(a2-3)Gal(b1-4)]GlcNAc
# In short: as §1
# [8] = target: Neu5Ac(a2-3)Gal(b1-3)[Neu5Ac(a2-6)]GalNAc
# In short: as §1
# [9] = target: Neu5Ac(a2-3)Gal(b1-3)[Neu5Ac(a2-6)]GlcNAc(b1-3)[Fuc(a1-3)[Gal(b1-4)]GlcNAc(b1-6)]Gal(b1-4)Glc
# In short: as §1
# Neu5Ac(a2-3)Gal(b1-4)Glc = target: Neu5Ac(a2-3)Gal(b1-4)Glc
# In short: as §1
# [10] = target: Neu5Ac(a2-3)Gal(b1-4)GlcNAc
# In short: as §1
# [11] = target: Neu5Ac(a2-3)Gal(b1-4)GlcNAc(b1-2)Man
# In short: as §1
# [12] = target: Neu5Ac(a2-3)Gal(b1-4)GlcNAc(b1-2)Man(a1-3)[GlcNAc(b1-2)Man(b1-4)GlcNAc(b1-2)Man(a1-6)]Man(b1-4)GlcNAc(b1-4)GlcNAc
# In short: as §1
# [13] = target: Neu5Ac(a2-3)Gal(b1-4)GlcNAc(b1-2)Man(a1-3)[Neu5Ac(a2-3)Gal(b1-4)GlcNAc(b1-2)Man(a1-6)]Man(b1-4)GlcNAc(b1-4)[Fuc(a1-6)]GlcNAc
# In short: as §1
# [14] = target: Neu5Ac(a2-3)Gal(b1-4)GlcNAc(b1-2)Man(a1-3)[Neu5Ac(a2-6)Gal(b1-4)GlcNAc(b1-2)Man(a1-6)]Man(b1-4)GlcNAc(b1-4)GlcNAc
# In short: as §1
# [15] = target: Neu5Ac(a2-3)Gal(b1-4)GlcNAc(b1-2)[Neu5Ac(a2-3)Gal(b1-4)GlcNAc(b1-6)]Man(a1-6)[Neu5Ac(a2-3)Gal(b1-4)GlcNAc(b1-2)Man(a1-3)]Man(b1-4)GlcNAc(b1-4)GlcNAc
# In short: as §1
# [16] = target: Neu5Ac(a2-3)Gal(b1-4)GlcNAc(b1-3)Gal
# In short: as §1
# [17] = target: Neu5Ac(a2-3)Gal(b1-4)GlcNAc(b1-3)Gal(b1-3)GlcNAc
# In short: as §1
# [18] = target: Neu5Ac(a2-3)Gal(b1-4)GlcNAc(b1-3)Gal(b1-4)GlcNAc
# In short: as §1
# [19] = target: Neu5Ac(a2-3)Gal(b1-4)GlcNAc(b1-3)Gal(b1-4)GlcNAc(b1-3)Gal(b1-4)GlcNAc
# In short: as §1
# [20] = target: Neu5Ac(a2-3)Gal(b1-4)GlcNAc(b1-3)Gal(b1-4)[Fuc(a1-3)]GlcNAc
# In short: as §1
# [21] = target: Neu5Ac(a2-3)Gal(b1-4)GlcNAc(b1-3)GalNAc
# In short: as §1
# [22] = target: Neu5Ac(a2-3)Gal(b1-4)GlcNAc(b1-3)[Neu5Ac(a2-3)Gal(b1-4)GlcNAc(b1-6)]GalNAc
# In short: as §1
binder,measurement,setting,value
B1,glycan array binding signal (z-score),[1],-0.104
same,glycan array binding signal (z-score),[2],-0.104
same,glycan array binding signal (z-score),[3],-0.144
same,glycan array binding signal (z-score),[4],-0.151
same,glycan array binding signal (z-score),[5],-0.144
same,glycan array binding signal (z-score),[6],-0.082
same,glycan array binding signal (z-score),[7],-0.164
same,glycan array binding signal (z-score),[8],1.63
same,glycan array binding signal (z-score),[9],-0.115
same,glycan array binding signal (z-score),Neu5Ac(a2-3)Gal(b1-4)Glc,-0.121
same,glycan array binding signal (z-score),[10],-0.148
same,glycan array binding signal (z-score),[11],-0.054
same,glycan array binding signal (z-score),[12],-0.124
same,glycan array binding signal (z-score),[13],-0.13
same,glycan array binding signal (z-score),[14],-0.095
same,glycan array binding signal (z-score),[15],-0.131
same,glycan array binding signal (z-score),[16],-0.133
same,glycan array binding signal (z-score),[17],-0.134
same,glycan array binding signal (z-score),[18],-0.154
same,glycan array binding signal (z-score),[19],-0.162
same,glycan array binding signal (z-score),[20],-0.148
same,glycan array binding signal (z-score),[21],-0.146
same,glycan array binding signal (z-score),[22],-0.152
